Source: publication PMC9574860, “Chemical Toolkit for PARK7: Potent, Selective, and High-Throughput” (Journal of Medicinal Chemistry, 2022)
About 400 (5.1%) of roughly 7,900 compounds showed an effect of 50% or more. This is one part of the list.

The molecules below were run against Parkinson's disease protein 7 (PARK7/DJ1) (human, UniProt Q99497) (assay: primary screen, percent inhibition; read as competition with a fluorescent probe by fluorescence polarization; higher = more effect of the substance). Conditions: 100 µM.
How it was run: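 Fluorescence-polarization probe displacement (JYQ-107, 20 nM final, 2 h) after 2 h preincubation of PARK7 (0.2 μM final) with each fragment at 100 μM final. Read-out ex/em 480/520 nm; remaining activity derived from FP signal loss relative to reference controls.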

Sequence of Parkinson's disease protein 7 (PARK7/DJ1) (Q99497 whole entry, looked up, the tested form may be a part): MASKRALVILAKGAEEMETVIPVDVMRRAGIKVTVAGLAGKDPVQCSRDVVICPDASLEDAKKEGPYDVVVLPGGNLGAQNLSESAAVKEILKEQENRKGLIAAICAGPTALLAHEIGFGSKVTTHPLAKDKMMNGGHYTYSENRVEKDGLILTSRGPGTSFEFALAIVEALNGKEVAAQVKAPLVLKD

Going from O=C(O)[C@H]1CCCN1C(=O)C=Cc1c(F)cccc1F to O=C(O)C1CCCN1C(=O)C=Cc1cccnc1 (stereo not drawn), the Inhibition % falls from 9.91% to 3.63%.

First: Cc1cccc(NC(=O)CCN2C(=O)CCC2=O)n1
Second: O=C(CCN1C(=O)CCC1=O)Nc1cccc(F)c1
The Inhibition % of the first is higher: 5.96% for the first, 3.52% for the second.

Going from CC1CC(Sc2nnc(N3CCCC3)s2)C(=O)O1 (stereo not drawn) to CC1CC(N2CCCC2Cn2cccn2)C(=O)O1 (stereo not drawn), the Inhibition % rises from 3.23% to 18.4%.

Going from CC1CC(n2cnc3c2c(=O)n(C)c(=O)n3C)C(=O)O1 (stereo not drawn) to CN(C(=O)c1ccc2c(=O)n(C)c(S)nc2c1)C1CCC1, the Inhibition % rises from 8.16% to 9.53%.

Going from Cc1cccc(CNC(=O)CCl)c1 to CN(Cc1cccc(Cl)c1)C(=O)CCl, the Inhibition % rises from 9.31% to 49.6%.

First: CN(C)CC1CN(C2CCOC2=O)CCO1 (stereo not drawn)
Second: C1CC(OCC2CO2)CCO1 (stereo not drawn)
The Inhibition % of the first is higher: 5.76% for the first, 4.06% for the second.

Compared with C=CC(=O)NCc1cc(=O)n2ccccc2n1, C=CC(=O)Nc1ccnn1-c1ccccc1C is higher in Inhibition %: 3.45% for the first, 17.7% for the second.

First: Cc1ccccc1CCNC(=O)Cn1cnc(C#N)n1
Second: Cc1ccc(C(=O)Cn2cnc(C#N)n2)cc1C
The Inhibition % of the first is higher: 4.99% for the first, -0.877% for the second.

First: CCc1nc(C)cn1S(=O)(=O)c1cc(OC)c(C)cc1C
Second: Cc1ccc(C)c(S(=O)(=O)n2nc(C)cc2C)c1
The Inhibition % of the first is higher: 2.8% for the first, 1.62% for the second.

Compared with C=CC(=O)N1CCCC(c2ncc(C(F)(F)F)[nH]2)C1 (stereo not drawn), C=CC(=O)N1CCCC(c2nc(C(F)(F)F)cs2)C1 (stereo not drawn) is higher in Inhibition %: 9.81% for the first, 15.5% for the second.

Compared with CN(CC(=O)Nc1ccccc1C(F)(F)F)C(=O)CCl, CSc1ccccc1NC(=O)CCCl is lower in Inhibition %: 17.5% for the first, 5.4% for the second.

First: CS(=O)(=O)N1CCc2cc(C(=O)CCl)ccc21
Second: NC(=O)COc1ccc(C(=O)CCl)cc1
The Inhibition % of the first is higher: 36.2% for the first, 5.31% for the second.

Compared with C=CC(=O)NCC1CCCc2sc(C)nc21 (stereo not drawn), C=CC(=O)NCC1CC2C=CC1CC2 (stereo not drawn) is higher in Inhibition %: 5.16% for the first, 9.57% for the second.

First: N#CC(=Cc1ccc2oncc2c1)C(=O)NC1CCCC1
Second: CC(C)NC(=O)C(C#N)=Cc1ccc2c(c1)OCCO2
The Inhibition % of the first is higher: 4.29% for the first, 0.585% for the second.

First: Cc1ccc(C=C(C#N)C(=O)NCC2CCCO2)o1 (stereo not drawn)
Second: C=CCNC(=O)C(C#N)=Cc1sccc1C
The Inhibition % of the first is lower: -3.59% for the first, 2.32% for the second.

Going from O=C(O)c1cccc(C2OCCO2)c1 to Cc1ccccc1C(=O)N1CCCCC1C1OCCO1 (stereo not drawn), the Inhibition % falls from 10.2% to 6.11%.

Compared with Cn1nccc1C(=O)CCl, Cc1occc1C(=O)C(C#N)=Cc1cnn(C)c1 is lower in Inhibition %: 15.4% for the first, 11.6% for the second.

Compared with N#Cc1ccccc1OS(=O)(=O)c1nccs1, COc1ccccc1C=C(C#N)S(C)(=O)=O is lower in Inhibition %: 25.6% for the first, 8% for the second.

Compared with C=CC(=O)N1CCCc2c(cnn2C)C1, C=CC(=O)N1CCN(c2nccnc2C)CC1 is higher in Inhibition %: 4.55% for the first, 10.6% for the second.

First: CNC(=O)Oc1noc(C)c1C
Second: Cc1nc(S)nc(C)c1CCC(=O)O
The Inhibition % of the first is higher: 84.8% for the first, -1.24% for the second.

Compared with C=CC(=O)NCCC1CCCCO1 (stereo not drawn), C=CC(=O)NCCc1nnc2n1CCCCC2 is higher in Inhibition %: 2.29% for the first, 8.54% for the second.

Going from C=CCC1(Nc2cncc(C#N)n2)CCCC1 to N#Cc1cc(N2CCCC2CF)ccn1 (stereo not drawn), the Inhibition % rises from 10.6% to 19.7%.

First: O=S(=O)(F)CCn1nnc2ccccc21
Second: O=c1c2ccccc2ccn1CCS(=O)(=O)F
The Inhibition % of the first is lower: 8.8% for the first, 95.1% for the second.

Going from O=C(O)C=CC(=O)N1CCOCC1 to CC(=O)Nc1cccc(OC(=O)N2CCOCC2)c1, the Inhibition % falls from 21.1% to 5.06%.

First: CCOCCCN1C(=O)CN=C1S
Second: Cn1c(S)nc2ccsc2c1=O
The Inhibition % of the first is higher: 10.3% for the first, 5.34% for the second.

Going from N#Cc1ccc(CC(=O)O)cn1 to N#Cc1ccn(CO)n1, the Inhibition % rises from 4.36% to 6.29%.

Going from CN1CCN(C(=O)C=Cc2c(Cl)nc3ccccn23)CC1 to C=CC(=O)N1CCN(c2ccncc2Cl)CC1, the Inhibition % falls from 9.8% to 9.46%.

Going from C=CC(=O)N(C)C1Cc2ccccc2C1 to C=CC(=O)N1CCCOc2ccccc21, the Inhibition % falls from 5.96% to 4.84%.

Compared with CC1(C)OB(c2cncc(-n3cccn3)c2)OC1(C)C, CN(C)c1ncc(B2OC(C)(C)C(C)(C)O2)cc1Cl is lower in Inhibition %: 9.82% for the first, 0.0857% for the second.

Going from Cl.SC1CCCN(Cc2ccccc2)C1 (stereo not drawn) to C=CC(=O)N1CC(=O)N(Cc2ccccc2)C1, the Inhibition % falls from 24.1% to 8.41%.

Compared with CC(C)(C)OC(=O)N1CCC(CB2OC(C)(C)C(C)(C)O2)C1 (stereo not drawn), CC1CC(C)CC(B2OC(C)(C)C(C)(C)O2)C1 (stereo not drawn) is higher in Inhibition %: 3.29% for the first, 7.39% for the second.

Compared with O=C(CCl)NC1CCCCC1C(F)(F)F (stereo not drawn), O=C(CCl)NCC(=O)N1CCCC1 is lower in Inhibition %: 12.8% for the first, 2.12% for the second.

First: C=CC(=O)N1CCS(=O)(=O)C2CCCCC21 (stereo not drawn)
Second: C=CC(=O)N1CCC(C)C2CCCCC21 (stereo not drawn)
The Inhibition % of the first is lower: 5.02% for the first, 9.24% for the second.

First: O=C(CCl)Nc1cc([N+](=O)[O-])ccc1Cl
Second: O=C(CCl)Nc1ccc(Cl)cc1C(=O)O
The Inhibition % of the first is lower: 16.6% for the first, 52.4% for the second.

Going from O=C(O)c1ccc(CN2C(=O)CSC2=O)cc1 to O=C(CN1CCSC1=O)Nc1ccc(F)cc1Cl, the Inhibition % falls from 47.9% to 5.37%.

Compared with Cc1c(Cl)cccc1B1OC(C)(C)C(C)(C)O1, COc1sccc1B1OC(C)(C)C(C)(C)O1 is higher in Inhibition %: 1.79% for the first, 14.3% for the second.

First: C=CC(=O)N1CC(n2nc(C)nc2C)C1
Second: C=CC(=O)N1CCC(CN(C)Cc2scnc2C)C1 (stereo not drawn)
The Inhibition % of the first is lower: 9.38% for the first, 13.2% for the second.

First: CN(CCOc1ccccc1F)c1cccnc1C#N
Second: N#CC(=Cc1cccnc1)c1nc2ccccc2c(=O)[nH]1
The Inhibition % of the first is higher: 40.3% for the first, 1.06% for the second.

Compared with Cc1nc(C#N)c(N)nc1Cl, Cn1c(C#N)cnc1Cl is lower in Inhibition %: 10.2% for the first, 0.0898% for the second.

Compared with COc1cc(C)c(S(=O)(=O)n2cccn2)cc1C(C)C, COc1ccc(C(C)C)cc1S(=O)(=O)n1ccnc1 is higher in Inhibition %: 1.74% for the first, 9.91% for the second.

Going from COc1ccc(NC2C=CS(=O)(=O)C2)cc1 (stereo not drawn) to CC(=O)N(c1ccc(Cl)cc1)C1C=CS(=O)(=O)C1 (stereo not drawn), the Inhibition % falls from 17% to 7.19%.

First: CCOc1cc(S(=O)(=O)n2ccnc2)ccc1Cl
Second: Cc1ccnc(NS(=O)(=O)c2ccc(S(=O)(=O)F)cc2)c1
The Inhibition % of the first is lower: 4.34% for the first, 16.1% for the second.

Compared with Cc1nc(C=CC(=O)N2CCC(C)(C(=O)O)C2)cs1 (stereo not drawn), O=C(O)C=Cc1ccncn1 is higher in Inhibition %: 5.72% for the first, 12.8% for the second.

Going from CCn1cc(B2OC(C)(C)C(C)(C)O2)c(C)n1 to CCOC(C)n1nccc1B1OC(C)(C)C(C)(C)O1 (stereo not drawn), the Inhibition % rises from 6.39% to 10.5%.

First: C=CC(=O)N1CCC(F)CC1
Second: C=CC(=O)N1CCN(Cc2ncon2)CC1
The Inhibition % of the first is higher: 12.5% for the first, 12.2% for the second.

First: COc1ccc(C(Cl)=CC#N)cc1
Second: C=C(C)c1nc(C#N)c(NCc2ccc(OC)cc2)o1
The Inhibition % of the first is higher: 3.52% for the first, 3.5% for the second.

Going from NC(=O)n1cc(C(=O)c2cc(Cl)ccc2O)cn1 to C=C(C(=O)O)c1ccccc1F, the Inhibition % falls from 5.53% to 3.02%.

Going from NS(=O)(=O)c1cccc(NC(=O)CCCl)c1 to O=S(=O)(CCCl)c1ccccc1, the Inhibition % rises from 4.37% to 4.74%.

Compared with N#CC(=Cc1cccs1)C(=O)NCc1ccco1, Cl.N#CC(=Cc1ccccc1)C(=O)NCCN1CCOCC1 is higher in Inhibition %: 1.56% for the first, 1.67% for the second.

Going from C=CC(=O)N1CCc2sccc2C1C (stereo not drawn) to C=CC(=O)N1CCN2C(=O)CCC12c1ccccc1 (stereo not drawn), the Inhibition % rises from 2.93% to 27.7%.

Compared with CS(=O)(=O)N1CCCC(CCl)C1 (stereo not drawn), Cc1ccc(S(=O)(=O)OCC2CCCCO2)cc1 (stereo not drawn) is higher in Inhibition %: 4.56% for the first, 16.8% for the second.

First: C=CC(=O)Nc1cccc(C(F)F)c1
Second: COC(=O)Nc1ccc(S(=O)(=O)F)cc1
The Inhibition % of the first is lower: 6.09% for the first, 34.7% for the second.

Going from Nc1cccnc1S to N#Cc1cccnc1S, the Inhibition % falls from 101% to 11.9%.

Compared with O=C(c1cc(F)cc(F)c1)N1CCCCC1C1OCCO1 (stereo not drawn), N#CC(=Cc1cccc(F)c1)c1nnc2n1CCCCC2 is lower in Inhibition %: 3.28% for the first, -0.367% for the second.

Going from N#Cc1nc(C2CC2)oc1N1CCNCC1 to CC1(C)C(=O)NC1C1CCN(c2ncccn2)CC1 (stereo not drawn), the Inhibition % rises from 1.83% to 13.6%.

Going from N#Cc1nccc(O)n1 to N#Cc1nn[nH]c1-c1cccnc1, the Inhibition % falls from 29.6% to 1.36%.

Compared with CC(c1nc2ccccc2s1)N(C)C(=O)CCl (stereo not drawn), Cc1ccc(Cc2cnc(NC(=O)CCl)s2)cc1 is lower in Inhibition %: 97.3% for the first, 7.26% for the second.

Compared with FC(F)(F)c1ccnc(S)c1, Cc1ccc(N)cc1S(=O)(=O)F is higher in Inhibition %: 29.6% for the first, 95.9% for the second.

Going from NC(=O)c1cnc(S)nc1O to O=C(Nc1cnc(C2CC2)nc1)c1cccnc1S, the Inhibition % rises from -0.398% to 7.43%.

Going from C=C(CO)C(=O)NC1CCCCCCC1 to O=C(CCl)Nc1ccc2c(c1)OC1(CCCC1)O2, the Inhibition % rises from 25.3% to 78.4%.

Compared with CC1(C)C2CN(C(=O)CCc3ccc(S(=O)(=O)F)cc3)CC21 (stereo not drawn), Cc1ccc(C=CS(=O)(=O)N2CCOC(C(C)C)C2)cc1 (stereo not drawn) is lower in Inhibition %: 38.6% for the first, 6.99% for the second.

Compared with Cn1cc(C2NC(=O)C23CCC3)cn1 (stereo not drawn), CC1(C)OB(C2=CCN(C(=O)OCc3ccccc3)CC2)OC1(C)C is lower in Inhibition %: 9.37% for the first, 4.89% for the second.

Going from Cc1cc2ccccn2c1C#N to C=CC(=O)N1CCN(S(=O)(=O)Cc2ccon2)CC1, the Inhibition % rises from 5.89% to 9.01%.
